Experimental data published in the supplement of paper PMC10369915.
The other results are listed elsewhere or left out. No stated cut-off is given here; in the data, active = 3.2 or more and inactive = the rest. Only a few entries rise above the background.

B1: FAM120B_Y368 (peptide)
chain: REVPVYTDSEP
B2: FAM120A_Y328 (peptide)
chain: RAIGYYSATSK
B3: FAM120A_Y328_YF (peptide)
chain: RAIGFYSATSK
B4: FBP1_Y259_R255L (peptide)
chain: HLTLVYGGIFL
B5: FDPS_Y388_YF (peptide)
chain: FEEDSYSHIMA
B6: FAM20C_Y279 (peptide)
chain: MTFQNYGQALF
B7: FAM83B_Y639 (peptide)
chain: SNNYIYKTLGV
B8: FER_Y402 (peptide)
chain: PPVVNYEEDAR
B9: FAM83B_Y433_S435R (peptide)
chain: SSREGYVRHHN
B10: FAM3D_Y65 (peptide)
chain: PCPANYFAFKI
B11: FAM120A_Y328_Y327H (peptide)
chain: RAIGHYSATSK
B12: FAT4_Y480 (peptide)
chain: FSQQVYRVNLS
B13: FCRL6_Y239 (peptide)
chain: SPPILYSFYLD
B14: FGA_Y127 (peptide)
chain: NRDNTYNRVSE
B15: FANCD2_Y458 (peptide)
chain: FGSLLYKYAFK
B16: FCRL4_Y493 (peptide)
chain: DVSVVYSEVKT
B17: FBP1_Y216 (peptide)
chain: SLNEGYARDFD
B18: FBXO3_Y223 (peptide)
chain: KNEVFYQCPDQ
B19: FAM171B_Y522 (peptide)
chain: GNEEAYGRSHI
B20: FAM83C_Y600 (peptide)
chain: DLLMQYPKAQG
B21: FER_Y402_E404Q (peptide)
chain: PPVVNYEQDAR
B22: FCRL3_Y722_N721S (peptide)
chain: DDEESYENVPR
B23: FCRL3_Y722 (peptide)
chain: DDEENYENVPR
B24: FAM120A_Y327_Y327H (peptide)
chain: KRAIGHYSATS
B25: FBXO15_Y496_Y496H (peptide)
chain: VNLVLHLSIAK
B26: FAM83B_Y637_YF (peptide)
chain: TESNNYIFKTL
B27: FAM120B_Y368_D370Y_YF (peptide)
chain: REVPVYTFSEP
B28: FAM92A_Y226 (peptide)
chain: FRNSLYAPDYS
B29: FAT4_Y4980_A4977T (peptide)
chain: GETEQYVGGGG
B30: FAS_Y232_Y232C (peptide)
chain: VDLSKCITTIA
B31: FCRL6_Y239_YF (peptide)
chain: SPPILYSFFLD
B32: FDPS_Y388_I391V (peptide)
chain: YEEDSYSHVMA
B33: FAM83B_Y639_K640T (peptide)
chain: SNNYIYTTLGV
B34: FAM83B_Y637_K640T_YF (peptide)
chain: TESNNYIFTTL
B35: FCRL4_Y493_Y493C (peptide)
chain: DVSVVCSEVKT
B36: FAM83B_Y637_K640T (peptide)
chain: TESNNYIYTTL
B37: FAM3D_Y122 (peptide)
chain: KAFDMYSGDVM

Target: SHP2 C-SH2 domain E139D
Experiment: enrichment score (SH2-bound / input frequency) (ratio); bacterial display of known human phosphotyrosine sites (pTyr-Var adds point mutants) read by sequencing; higher = stronger binding; tyrosines were phosphorylated by kinases first
Details: peptide library: pTyr-Var
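Further: displayed peptides selected on beads carrying the immobilized SH2 domain, with library peptides lacking any tyrosine serving as negative controls.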

Row | Binder | enrichment score
1 | B1 | inactive: 0.569
2 | B2 | inactive: 0.677
3 | B3 | inactive: 0.787
4 | B4 | inactive: 0.913
5 | B5 | inactive: 0.628
6 | B6 | inactive: 0.975
7 | B7 | inactive: 0.984
8 | B8 | inactive: 0.551
9 | B9 | inactive: 0.842
10 | B10 | inactive: 1.79
11 | B11 | inactive: 0.558
12 | B12 | inactive: 1.18
13 | B13 | inactive: 1.89
14 | B14 | inactive: 0.403
15 | B15 | inactive: 0.543
16 | B16 | inactive: 2.05
17 | B17 | inactive: 0.699
18 | B18 | inactive: 0.78
19 | B19 | inactive: 0.528

Row | Binder | enrichment score
20 | B20 | inactive: 1.06
21 | B21 | inactive: 0.673
22 | B22 | inactive: 0.27
23 | B23 | inactive: 0.57
24 | B24 | inactive: 0.465
25 | B25 | inactive: 0.801
26 | B26 | inactive: 0.443
27 | B27 | inactive: 0.874
28 | B28 | inactive: 0.98
29 | B29 | inactive: 0.483
30 | B30 | inactive: 0.604
31 | B31 | inactive: 2.25
32 | B32 | inactive: 0.528
33 | B33 | inactive: 1.02
34 | B34 | inactive: 0.66
35 | B35 | inactive: 0.798
36 | B36 | inactive: 0.553
37 | B37 | inactive: 0.837

Target: SHP2 C-SH2 domain wild-type
Experiment: as above
Details: peptide library: pTyr-Var

Row | Binder | enrichment score
38 | B1 | inactive: 0.732
39 | B2 | inactive: 0.733
40 | B3 | inactive: 0.736
41 | B4 | inactive: 1.18
42 | B5 | inactive: 0.571
43 | B6 | inactive: 0.833
44 | B7 | inactive: 1.18
45 | B8 | inactive: 0.585
46 | B9 | inactive: 0.727
47 | B10 | inactive: 1.84
48 | B11 | inactive: 0.561
49 | B12 | inactive: 0.985
50 | B13 | inactive: 1.97
51 | B14 | inactive: 0.592
52 | B15 | inactive: 0.755
53 | B16 | active: 4.33
54 | B17 | inactive: 0.48
55 | B18 | inactive: 0.736
56 | B19 | inactive: 0.56

Row | Binder | enrichment score
57 | B20 | inactive: 0.745
58 | B21 | inactive: 0.558
59 | B22 | inactive: 0.329
60 | B23 | inactive: 0.483
61 | B24 | inactive: 0.528
62 | B25 | inactive: 1.57
63 | B26 | inactive: 0.616
64 | B27 | inactive: 1.23
65 | B28 | inactive: 0.692
66 | B29 | inactive: 0.393
67 | B30 | inactive: 0.612
68 | B31 | inactive: 1.79
69 | B32 | inactive: 0.736
70 | B33 | inactive: 2.37
71 | B34 | inactive: 0.716
72 | B35 | inactive: 0.981
73 | B36 | inactive: 0.638
74 | B37 | inactive: 0.725

Target: SHP2 N-SH2 domain L43F
Experiment: as above
Details: peptide library: pTyr-Var

Row | Binder | enrichment score
75 | B1 | inactive: 0.577
76 | B2 | inactive: 0.397
77 | B3 | inactive: 0.816
78 | B4 | inactive: 0.877
79 | B5 | inactive: 0.617
80 | B6 | inactive: 1.08
81 | B7 | inactive: 0.879
82 | B8 | inactive: 0.691
83 | B9 | inactive: 0.871
84 | B10 | inactive: 1.88
85 | B11 | inactive: 0.805
86 | B12 | inactive: 1.29
87 | B13 | inactive: 1.85
88 | B14 | inactive: 0.542
89 | B15 | inactive: 0.588
90 | B16 | inactive: 1.64
91 | B17 | inactive: 0.591
92 | B18 | inactive: 0.707
93 | B19 | inactive: 0.561

Row | Binder | enrichment score
94 | B20 | inactive: 0.865
95 | B21 | inactive: 0.662
96 | B22 | inactive: 0.286
97 | B23 | inactive: 0.473
98 | B24 | inactive: 0.555
99 | B25 | inactive: 0.764
100 | B26 | inactive: 0.614
101 | B27 | inactive: 0.848
102 | B28 | inactive: 0.856
103 | B29 | inactive: 0.434
104 | B30 | inactive: 0.428
105 | B31 | inactive: 1.72
106 | B32 | inactive: 0.645
107 | B33 | inactive: 1.02
108 | B34 | inactive: 0.655
109 | B35 | inactive: 1
110 | B36 | inactive: 0.607
111 | B37 | inactive: 0.73

Target: SHP2 N-SH2 domain T42A
Experiment: as above
Details: peptide library: pTyr-Var

Row | Binder | enrichment score
112 | B1 | inactive: 0.416
113 | B2 | inactive: 0.703
114 | B3 | inactive: 0.856
115 | B4 | inactive: 0.625
116 | B5 | inactive: 0.575
117 | B6 | inactive: 1.2
118 | B7 | inactive: 0.96
119 | B8 | inactive: 0.53
120 | B9 | inactive: 0.836
121 | B10 | inactive: 1.69
122 | B11 | inactive: 0.347
123 | B12 | inactive: 1.02
124 | B13 | inactive: 1.49
125 | B14 | inactive: 0.402
126 | B15 | inactive: 0.56
127 | B16 | active: 5.08
128 | B17 | inactive: 0.594
129 | B18 | inactive: 0.668
130 | B19 | inactive: 0.632

Row | Binder | enrichment score
131 | B20 | inactive: 0.706
132 | B21 | inactive: 0.812
133 | B22 | inactive: 0.381
134 | B23 | inactive: 0.541
135 | B24 | inactive: 0.48
136 | B25 | inactive: 0.625
137 | B26 | inactive: 0.531
138 | B27 | inactive: 0.635
139 | B28 | inactive: 0.804
140 | B29 | inactive: 0.425
141 | B30 | inactive: 0.548
142 | B31 | inactive: 1.48
143 | B32 | inactive: 0.606
144 | B33 | active: 5.16
145 | B34 | inactive: 0.522
146 | B35 | inactive: 0.584
147 | B36 | inactive: 0.913
148 | B37 | inactive: 0.58

Target: SHP2 N-SH2 domain T52S
Experiment: as above
Details: peptide library: pTyr-Var

Row | Binder | enrichment score
149 | B1 | inactive: 0.708
150 | B2 | inactive: 0.401
151 | B3 | inactive: 0.745
152 | B4 | inactive: 0.699
153 | B5 | inactive: 0.591
154 | B6 | inactive: 1.25
155 | B7 | inactive: 0.792
156 | B8 | inactive: 0.489
157 | B9 | inactive: 0.86
158 | B10 | inactive: 1.58
159 | B11 | inactive: 0.552
160 | B12 | inactive: 1.11
161 | B13 | inactive: 1.93
162 | B14 | inactive: 0.573
163 | B15 | inactive: 0.57
164 | B16 | inactive: 1.48
165 | B17 | inactive: 0.971
166 | B18 | inactive: 0.777
167 | B19 | inactive: 0.984

Row | Binder | enrichment score
168 | B20 | inactive: 0.885
169 | B21 | inactive: 0.658
170 | B22 | inactive: 0.441
171 | B23 | inactive: 0.508
172 | B24 | inactive: 0.471
173 | B25 | inactive: 0.546
174 | B26 | inactive: 0.615
175 | B27 | inactive: 0.841
176 | B28 | inactive: 0.712
177 | B29 | inactive: 0.395
178 | B30 | inactive: 0.512
179 | B31 | inactive: 1.93
180 | B32 | inactive: 0.794
181 | B33 | inactive: 1.07
182 | B34 | inactive: 0.766
183 | B35 | inactive: 0.744
184 | B36 | inactive: 0.686
185 | B37 | inactive: 0.82

Target: SHP2 N-SH2 domain wild-type
Experiment: as above
Details: peptide library: pTyr-Var

Row | Binder | enrichment score
186 | B1 | inactive: 0.83
187 | B2 | inactive: 0.777
188 | B3 | inactive: 1.02
189 | B4 | inactive: 1.31
190 | B5 | inactive: 0.671
191 | B6 | inactive: 1.11
192 | B7 | inactive: 0.998
193 | B8 | inactive: 0.685
194 | B9 | inactive: 0.867
195 | B10 | inactive: 1.76
196 | B11 | inactive: 0.481
197 | B12 | inactive: 1.12
198 | B13 | inactive: 1.27
199 | B14 | inactive: 0.48
200 | B15 | inactive: 0.596
201 | B16 | inactive: 1.19
202 | B17 | inactive: 0.687
203 | B18 | inactive: 0.792
204 | B19 | inactive: 0.635

Row | Binder | enrichment score
205 | B20 | inactive: 1.24
206 | B21 | inactive: 0.798
207 | B22 | inactive: 0.41
208 | B23 | inactive: 0.7
209 | B24 | inactive: 0.674
210 | B25 | inactive: 1.22
211 | B26 | inactive: 0.952
212 | B27 | inactive: 1.08
213 | B28 | inactive: 0.902
214 | B29 | inactive: 0.536
215 | B30 | inactive: 0.923
216 | B31 | inactive: 1.63
217 | B32 | inactive: 0.68
218 | B33 | inactive: 0.764
219 | B34 | inactive: 0.983
220 | B35 | inactive: 0.858
221 | B36 | inactive: 0.577
222 | B37 | inactive: 0.66
